Test results taken from publication PMC10026737.
No constants are given. Whether binding was seen depends on the method and setting. Binding seen in cells or lysates may run through a third protein. Some binding calls cover weakened binding; strength is not graded here. Where a sequence is shown, tags or fusion partners need not be part of it.

Key:
Experiment in all cases: co-IP; H1299 cells co-transfected with a Flag-tagged and a V5-tagged protein; NP40 lysis buffer (50 mmol/L Tris-HCl pH 8.0, 0.5% NP-40, 1 mmol/L EDTA, 150 mmol/L NaCl); IP with anti-Flag antibody, immunoblot
[1] = biological target: T1, Flag-DGCR8 (wild type, full length) (UniProt Q8WYQ5)
T1 sequence: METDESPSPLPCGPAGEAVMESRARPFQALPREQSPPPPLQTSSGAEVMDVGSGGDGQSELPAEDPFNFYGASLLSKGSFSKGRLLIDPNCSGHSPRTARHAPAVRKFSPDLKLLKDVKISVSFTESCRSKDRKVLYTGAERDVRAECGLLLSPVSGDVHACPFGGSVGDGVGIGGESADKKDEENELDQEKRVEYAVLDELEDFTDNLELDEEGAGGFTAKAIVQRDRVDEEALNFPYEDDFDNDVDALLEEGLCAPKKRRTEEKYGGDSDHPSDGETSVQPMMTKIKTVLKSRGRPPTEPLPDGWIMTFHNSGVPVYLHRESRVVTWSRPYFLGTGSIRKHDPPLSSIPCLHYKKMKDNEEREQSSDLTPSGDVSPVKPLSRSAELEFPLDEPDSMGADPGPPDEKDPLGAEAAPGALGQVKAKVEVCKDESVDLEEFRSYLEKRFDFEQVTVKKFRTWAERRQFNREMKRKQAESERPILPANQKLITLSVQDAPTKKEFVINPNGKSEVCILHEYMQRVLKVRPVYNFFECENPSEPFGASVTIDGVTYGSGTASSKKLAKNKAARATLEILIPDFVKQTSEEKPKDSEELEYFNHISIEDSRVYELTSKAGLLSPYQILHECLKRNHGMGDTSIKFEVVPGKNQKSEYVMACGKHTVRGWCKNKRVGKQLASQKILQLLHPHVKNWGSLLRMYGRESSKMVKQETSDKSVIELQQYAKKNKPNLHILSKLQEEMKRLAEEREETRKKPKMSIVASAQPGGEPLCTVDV

[2] = biological target: T2, Flag-DGCR8 deletion mutant, C-terminal region (aa 501-773) (UniProt Q8WYQ5)
T2 sequence: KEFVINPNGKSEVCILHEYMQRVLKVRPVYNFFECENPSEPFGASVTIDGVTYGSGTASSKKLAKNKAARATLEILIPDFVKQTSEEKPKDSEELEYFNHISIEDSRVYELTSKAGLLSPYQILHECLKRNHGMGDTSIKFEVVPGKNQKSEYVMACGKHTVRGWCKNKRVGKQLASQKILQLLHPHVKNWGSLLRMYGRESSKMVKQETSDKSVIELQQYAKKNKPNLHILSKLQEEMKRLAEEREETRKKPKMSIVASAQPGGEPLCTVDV

[3] = biological target: T3, Flag-Drosha (full length) (UniProt Q9NRR4)
T3 sequence: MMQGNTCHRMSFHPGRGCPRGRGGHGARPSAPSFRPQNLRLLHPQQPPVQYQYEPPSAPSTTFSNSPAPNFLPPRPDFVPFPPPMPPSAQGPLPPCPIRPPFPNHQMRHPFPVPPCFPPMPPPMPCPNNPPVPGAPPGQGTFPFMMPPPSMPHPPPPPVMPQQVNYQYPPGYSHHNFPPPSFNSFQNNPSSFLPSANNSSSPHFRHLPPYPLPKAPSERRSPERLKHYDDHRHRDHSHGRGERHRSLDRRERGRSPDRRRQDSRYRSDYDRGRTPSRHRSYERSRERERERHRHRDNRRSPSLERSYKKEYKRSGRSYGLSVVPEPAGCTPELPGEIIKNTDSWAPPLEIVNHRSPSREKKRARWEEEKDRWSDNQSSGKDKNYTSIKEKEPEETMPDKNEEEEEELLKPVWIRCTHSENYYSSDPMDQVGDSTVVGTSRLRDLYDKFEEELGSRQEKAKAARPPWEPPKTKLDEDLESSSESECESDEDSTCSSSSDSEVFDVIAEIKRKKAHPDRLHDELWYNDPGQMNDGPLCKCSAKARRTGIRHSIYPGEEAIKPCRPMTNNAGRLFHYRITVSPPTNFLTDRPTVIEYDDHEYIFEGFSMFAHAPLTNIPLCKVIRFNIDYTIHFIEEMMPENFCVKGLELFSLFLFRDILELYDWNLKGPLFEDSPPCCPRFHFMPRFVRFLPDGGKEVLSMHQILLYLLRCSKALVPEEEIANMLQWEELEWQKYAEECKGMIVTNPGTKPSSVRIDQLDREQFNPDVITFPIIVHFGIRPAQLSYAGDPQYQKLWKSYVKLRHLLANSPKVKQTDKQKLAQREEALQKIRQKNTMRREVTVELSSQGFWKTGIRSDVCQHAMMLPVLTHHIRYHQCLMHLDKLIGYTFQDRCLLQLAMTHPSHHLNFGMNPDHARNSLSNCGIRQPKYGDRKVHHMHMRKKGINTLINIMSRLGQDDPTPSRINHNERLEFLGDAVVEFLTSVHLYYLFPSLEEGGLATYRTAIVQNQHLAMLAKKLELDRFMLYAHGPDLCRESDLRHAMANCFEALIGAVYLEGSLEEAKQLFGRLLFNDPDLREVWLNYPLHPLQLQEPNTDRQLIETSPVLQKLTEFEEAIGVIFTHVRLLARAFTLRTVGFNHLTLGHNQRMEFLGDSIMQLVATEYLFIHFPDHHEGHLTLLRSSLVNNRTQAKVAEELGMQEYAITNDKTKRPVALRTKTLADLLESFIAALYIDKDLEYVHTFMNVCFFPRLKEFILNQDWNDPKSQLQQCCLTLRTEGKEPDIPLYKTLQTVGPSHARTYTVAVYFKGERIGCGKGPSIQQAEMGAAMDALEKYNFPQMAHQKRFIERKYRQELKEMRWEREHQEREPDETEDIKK

Measured: binding

B1: V5-tagged USP36 (enzyme, UniProt Q9P275 1-1123)
chain: MPIVDKLKEALKPGRKDSADDGELGKLLASSAKKVLLQKIEFEPASKSFSYQLEALKSKYVLLNPKTEGASRHKSGDDPPARRQGSEHTYESCGDGVPAPQKVLFPTERLSLRWERVFRVGAGLHNLGNTCFLNATIQCLTYTPPLANYLLSKEHARSCHQGSFCMLCVMQNHIVQAFANSGNAIKPVSFIRDLKKIARHFRFGNQEDAHEFLRYTIDAMQKACLNGCAKLDRQTQATTLVHQIFGGYLRSRVKCSVCKSVSDTYDPYLDVALEIRQAANIVRALELFVKADVLSGENAYMCAKCKKKVPASKRFTIHRTSNVLTLSLKRFANFSGGKITKDVGYPEFLNIRPYMSQNNGDPVMYGLYAVLVHSGYSCHAGHYYCYVKASNGQWYQMNDSLVHSSNVKVVLNQQAYVLFYLRIPGSKKSPEGLISRTGSSSLPGRPSVIPDHSKKNIGNGIISSPLTGKRQDSGTMKKPHTTEEIGVPISRNGSTLGLKSQNGCIPPKLPSGSPSPKLSQTPTHMPTILDDPGKKVKKPAPPQHFSPRTAQGLPGTSNSNSSRSGSQRQGSWDSRDVVLSTSPKLLATATANGHGLKGNDESAGLDRRGSSSSSPEHSASSDSTKAPQTPRSGAAHLCDSQETNCSTAGHSKTPPSGADSKTVKLKSPVLSNTTTEPASTMSPPPAKKLALSAKKASTLWRATGNDLRPPPPSPSSDLTHPMKTSHPVVASTWPVHRARAVSPAPQSSSRLQPPFSPHPTLLSSTPKPPGTSEPRSCSSISTALPQVNEDLVSLPHQLPEASEPPQSPSEKRKKTFVGEPQRLGSETRLPQHIREATAAPHGKRKRKKKKRPEDTAASALQEGQTQRQPGSPMYRREGQAQLPAVRRQEDGTQPQVNGQQVGCVTDGHHASSRKRRRKGAEGLGEEGGLHQDPLRHSCSPMGDGDPEAMEESPRKKKKKKRKQETQRAVEEDGHLKCPRSAKPQDAVVPESSSCAPSANGWCPGDRMGLSQAPPVSWNGERESDVVQELLKYSSDKAYGRKVLTWDGKMSAVSQDAIEDSRQARTETVVDDWDEEFDRGKEKKIKKFKREKRRNFNAFQKLQTRRNFWSVTHPAKAASLSYRR
binds: all assays above
